Laboratory results: the supplement of paper PMC8007513
Counter-ions that a name gives are not always drawn. ± gives the standard error. Hit rate of the full screen: of about 1,300 compounds, about 130 (10%) showed an effect of 50% or more. This is a selection; strong and weak results do not stand in their true shares.

Tested on: Trichoderma virens ATCC 9645
Assay: growth yield (OD600) with compound + IPBC relative to untreated control; higher = less growth inhibition
Conditions: compound concentration: 100 uM, IPBC concentration: 200 ng/ml
Procedure, shortened: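 Library compounds (100 μM final), with or without a co-applied biocide (200 ng ml^−1), were added to 100 μl aliquots of Trichoderma virens ATCC 9645 spores at 15,000 spores ml^−1 in potato dextrose broth. Cultures were grown at 30 °C in 96-well plates, and OD600 was measured at 40 h and 72 h. Each growth value is a mean of duplicate screens, expressed relative to the control with neither agent.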

Row | SMILES | growth yield (40 h) | growth yield (72 h)
1 | Cc1nc2n(c(=O)c1CCN1CCC(c3noc4cc(F)ccc34)CC1)CCCC2 [Risperidone] + CCCCNC(=O)OCC#CI [3-iodo-2-propynyl butylcarbamate (IPBC)] | 104 ± 12% | 101 ± 10%
2 | CC(=O)Nc1ccc(CC(=O)O)cc1 [Actarit] + CCCCNC(=O)OCC#CI [3-iodo-2-propynyl butylcarbamate (IPBC)] | 93.4 ± 1.6% | 92.2 ± 2.2%
3 | CCS(=O)(=O)CCn1c([N+](=O)[O-])cnc1C [Tinidazole] + CCCCNC(=O)OCC#CI [3-iodo-2-propynyl butylcarbamate (IPBC)] | 87.52 ± 0.16% | 89.1 ± 1.3%
4 | O=C1CCc2cc(OCCCCc3nnnn3C3CCCCC3)ccc2N1 [Cilostazol] + CCCCNC(=O)OCC#CI [3-iodo-2-propynyl butylcarbamate (IPBC)] | 81.6 ± 3.2% | 91.9 ± 2.7%
5 | C[C@]12C/C(=C/O)C(=O)C[C@@H]1CC[C@@H]1[C@@H]2CC[C@@]2(C)[C@H]1CC[C@]2(C)O [Oxymetholone] + CCCCNC(=O)OCC#CI [3-iodo-2-propynyl butylcarbamate (IPBC)] | 112 ± 14% | 105 ± 9.2%
6 | CCC1=C(C)CN(C(=O)NCCc2ccc(S(=O)(=O)NC(=O)N[C@H]3CC[C@H](C)CC3)cc2)C1=O [Glimepiride] + CCCCNC(=O)OCC#CI [3-iodo-2-propynyl butylcarbamate (IPBC)] | 100 ± 8.1% | 95.8 ± 6%
7 | CC1(C)NC(=O)N(c2ccc([N+](=O)[O-])c(C(F)(F)F)c2)C1=O [Nilutamide] + CCCCNC(=O)OCC#CI [3-iodo-2-propynyl butylcarbamate (IPBC)] | 84.98 ± 0.16% | 88.8 ± 1.4%
8 | CCCCC(CC)CNC(=N)NC(=N)NCCCCCCNC(=N)NC(=N)NCC(CC)CCCC (stereo unspecified) [Alexidine dihydrochloride] + CCCCNC(=O)OCC#CI [3-iodo-2-propynyl butylcarbamate (IPBC)] | 2.5415 ± 3.6e-15% | 2.94 ± 0.21%
9 | COC(=O)[C@@H]1[C@H]2C[C@H]3c4[nH]c5ccccc5c4CCN3C[C@@H]2CC[C@@H]1O [Yohimbine hydrochloride] + CCCCNC(=O)OCC#CI [3-iodo-2-propynyl butylcarbamate (IPBC)] | 82.4 ± 1.1% | 89.25 ± 0.73%
10 | COc1ccc2cc([C@@H](C)C(=O)O)ccc2c1 [(R) -Naproxen sodium salt] + CCCCNC(=O)OCC#CI [3-iodo-2-propynyl butylcarbamate (IPBC)] | 67.7 ± 2.2% | 81.5 ± 3.5%
11 | Nc1nc(=O)c2c([nH]1)NC[C@@H](CNc1ccc(C(=O)N[C@@H](CCC(=O)O)C(=O)O)cc1)N2C=O [Folinic acid calcium salt] + CCCCNC(=O)OCC#CI [3-iodo-2-propynyl butylcarbamate (IPBC)] | 115 ± 3.3% | 101 ± 2.8%
12 | CC(C)CN(C[C@@H](O)[C@H](Cc1ccccc1)NC(=O)O[C@H]1CO[C@H]2OCC[C@H]21)S(=O)(=O)c1ccc(N)cc1 [Darunavir] + CCCCNC(=O)OCC#CI [3-iodo-2-propynyl butylcarbamate (IPBC)] | 110 ± 9.7% | 113 ± 6.4%
13 | CNC(=O)Oc1ccc2c(c1)[C@]1(C)CCN(C)[C@@H]1N2C [Eserine hemisulfate salt] + CCCCNC(=O)OCC#CI [3-iodo-2-propynyl butylcarbamate (IPBC)] | 85.9 ± 2.4% | 89.9 ± 2.2%
14 | O=C1c2cccc3c2[C@H](CCC3)CN1[C@@H]1CN2CCC1CC2 [Palonosetron hydrochloride] + CCCCNC(=O)OCC#CI [3-iodo-2-propynyl butylcarbamate (IPBC)] | 94.5 ± 3.6% | 94.39 ± 0.84%
15 | NCC[C@H](O)C(=O)N[C@@H]1C[C@H](N)[C@@H](O[C@H]2O[C@H](CN)[C@@H](O)[C@H](O)[C@H]2O)[C@H](O)[C@H]1O[C@H]1O[C@H](CO)[C@@H](O)[C@H](N)[C@H]1O [Amikacin hydrate] + CCCCNC(=O)OCC#CI [3-iodo-2-propynyl butylcarbamate (IPBC)] | 54.3 ± 3.5% | 85 ± 1.1%
16 | O=c1[nH]cnc2c1ncn2[C@H]1CC[C@@H](CO)O1 [Didanosine] + CCCCNC(=O)OCC#CI [3-iodo-2-propynyl butylcarbamate (IPBC)] | 56.5 ± 8.9% | 57.6 ± 4.3%
17 | CN(C/C=C/C#CC(C)(C)C)Cc1cccc2ccccc12 [Terbinafine] + CCCCNC(=O)OCC#CI [3-iodo-2-propynyl butylcarbamate (IPBC)] | 3.18 ± 0.64% | 2.94 ± 0.42%
18 | Fc1ccc([C@@H]2CCNC[C@H]2COc2ccc3c(c2)OCO3)cc1 [Paroxetine Hydrochloride] + CCCCNC(=O)OCC#CI [3-iodo-2-propynyl butylcarbamate (IPBC)] | 68 ± 4.8% | 92.5 ± 2.5%
19 | C[C@H]1COc2c(N3CCN(C)CC3)c(F)cc3c(=O)c(C(=O)O)cn1c23 [Levofloxacin] + CCCCNC(=O)OCC#CI [3-iodo-2-propynyl butylcarbamate (IPBC)] | 99.6 ± 10% | 100 ± 6.4%

Row | SMILES | growth yield (40 h) | growth yield (72 h)
20 | NC(CO)C(=O)NNCc1ccc(O)c(O)c1O (stereo unspecified) [Benserazide hydrochloride] + CCCCNC(=O)OCC#CI [3-iodo-2-propynyl butylcarbamate (IPBC)] | 63.9 ± 0.64% | 75.2 ± 0.52%
21 | NCCC[C@H](N)CC(=O)N[C@H]1CNC(=O)[C@H]([C@H]2C[C@H](O)NC(N)=N2)NC(=O)/C(=C/NC(N)=O)NC(=O)[C@H](CO)NC(=O)[C@H](CO)NC1=O [Viomycin sulfate] + CCCCNC(=O)OCC#CI [3-iodo-2-propynyl butylcarbamate (IPBC)] | 97.21 ± 0.32% | 97.43 ± 0.52%
22 | O=C(Oc1cccc2cccnc12)c1ccccc1 [Benzoxiquine] + CCCCNC(=O)OCC#CI [3-iodo-2-propynyl butylcarbamate (IPBC)] | 36.4 ± 0.48% | 65.5 ± 0.73%
23 | CN1CCC(OC(c2ccccc2)c2ccccc2)CC1 [Diphenylpyraline hydrochloride] + CCCCNC(=O)OCC#CI [3-iodo-2-propynyl butylcarbamate (IPBC)] | 81.96 ± 0.64% | 85.4 ± 1.3%
24 | CN(C)C(=O)Oc1cccc([N+](C)(C)C)c1 [Neostigmine bromide] + CCCCNC(=O)OCC#CI [3-iodo-2-propynyl butylcarbamate (IPBC)] | 83.4 ± 1.1% | 92.19 ± 0.52%
25 | Clc1ccc(Nc2nnc(Cc3ccncc3)c3ccccc23)cc1 [Vatalanib] + CCCCNC(=O)OCC#CI [3-iodo-2-propynyl butylcarbamate (IPBC)] | 72.59 ± 0.16% | 82%
26 | C[C@H](CCC(=O)O)[C@H]1CC[C@H]2[C@@H]3CC[C@@H]4C[C@H](O)CC[C@]4(C)[C@H]3CC[C@]12C [Lithocholic acid] + CCCCNC(=O)OCC#CI [3-iodo-2-propynyl butylcarbamate (IPBC)] | 112 ± 9.5% | 106 ± 8.2%
27 | CC(=O)SCC(Cc1ccccc1)C(=O)NCC(=O)OCc1ccccc1 (stereo unspecified) [Racecadotril] + CCCCNC(=O)OCC#CI [3-iodo-2-propynyl butylcarbamate (IPBC)] | 73.7 ± 1.6% | 81.9 ± 1.6%
28 | COC(=O)C1=C(C)NC(C)=C(C(=O)OC(C)C)C1c1cccc2nonc12 (stereo unspecified) [Isradipine] + CCCCNC(=O)OCC#CI [3-iodo-2-propynyl butylcarbamate (IPBC)] | 81.3 ± 6.7% | 87.6 ± 3.9%
29 | O=C(O)CCCC[C@@H]1SC[C@@H]2NC(=O)N[C@@H]21 [Biotin] + CCCCNC(=O)OCC#CI [3-iodo-2-propynyl butylcarbamate (IPBC)] | 85.3 ± 3.3% | 91.03 ± 0.84%
30 | COCC(=O)Nc1c(I)c(C(=O)NCC(O)CO)c(I)c(C(=O)N(C)CC(O)CO)c1I (stereo unspecified) [Iopromide] + CCCCNC(=O)OCC#CI [3-iodo-2-propynyl butylcarbamate (IPBC)] | 98 ± 5.2% | 96 ± 5.8%
31 | CC1COc2c(N3CCN(C)CC3)c(F)cc3c(=O)c(C(=O)O)cn1c23 (stereo unspecified) [Ofloxacin] + CCCCNC(=O)OCC#CI [3-iodo-2-propynyl butylcarbamate (IPBC)] | 84.3 ± 1.8% | 91.3 ± 0.94%
32 | Cn1cnc([N+](=O)[O-])c1Sc1ncnc2[nH]cnc12 [Azathioprine] + CCCCNC(=O)OCC#CI [3-iodo-2-propynyl butylcarbamate (IPBC)] | 99.9 ± 7.5% | 98.6 ± 5.2%
33 | CC(C)C(=O)Nc1ccc([N+](=O)[O-])c(C(F)(F)F)c1 [Flutamide] + CCCCNC(=O)OCC#CI [3-iodo-2-propynyl butylcarbamate (IPBC)] | 58.29 ± 0.48% | 78.9 ± 4.2%
34 | OCCN1C[C@H](O)[C@@H](O)[C@H](O)[C@H]1CO [Miglitol] + CCCCNC(=O)OCC#CI [3-iodo-2-propynyl butylcarbamate (IPBC)] | 90.1 ± 9.1% | 93 ± 4.5%
35 | CCNCC(O)c1cccc(O)c1 (stereo unspecified) [Etilefrine hydrochloride] + CCCCNC(=O)OCC#CI [3-iodo-2-propynyl butylcarbamate (IPBC)] | 96.9 ± 3.5% | 98.1 ± 2.4%
36 | CCC(=O)OCC(=O)[C@@]1(OC(=O)CC)[C@@H](C)C[C@H]2[C@@H]3CCC4=CC(=O)C=C[C@]4(C)[C@@]3(Cl)[C@@H](O)C[C@@]21C [Beclomethasone dipropionate] + CCCCNC(=O)OCC#CI [3-iodo-2-propynyl butylcarbamate (IPBC)] | 106.9 ± 0.48% | 105 ± 1.5%
37 | CCN(CC)Cc1cc(Nc2ccnc3cc(Cl)ccc23)ccc1O [Amodiaquin dihydrochloride dihydrate] + CCCCNC(=O)OCC#CI [3-iodo-2-propynyl butylcarbamate (IPBC)] | 62.9% | 93.13 ± 0.84%
38 | COc1ccccc1N1CCN(CCCNc2cc(=O)n(C)c(=O)n2C)CC1 [Urapidil hydrochloride] + CCCCNC(=O)OCC#CI [3-iodo-2-propynyl butylcarbamate (IPBC)] | 88.3 ± 1.3% | 92.4 ± 0.1%
